# Data from article PMC4336329 (PLoS ONE, 2015).
# Hit rate of the full screen: of about 310,000 compounds, about 2,200 (0.71%) showed an effect of 50% or more. Effects have a minus sign here. The list shows a part of the results.
# Target: human ether-à-go-go-related gene (hERG) potassium channel (human, UniProt Q12809)
# Assay: primary screen, population patch clamp on CHO cells stably expressing hERG
# Sequence of human ether-à-go-go-related gene (hERG) potassium channel (Q12809 whole entry, looked up): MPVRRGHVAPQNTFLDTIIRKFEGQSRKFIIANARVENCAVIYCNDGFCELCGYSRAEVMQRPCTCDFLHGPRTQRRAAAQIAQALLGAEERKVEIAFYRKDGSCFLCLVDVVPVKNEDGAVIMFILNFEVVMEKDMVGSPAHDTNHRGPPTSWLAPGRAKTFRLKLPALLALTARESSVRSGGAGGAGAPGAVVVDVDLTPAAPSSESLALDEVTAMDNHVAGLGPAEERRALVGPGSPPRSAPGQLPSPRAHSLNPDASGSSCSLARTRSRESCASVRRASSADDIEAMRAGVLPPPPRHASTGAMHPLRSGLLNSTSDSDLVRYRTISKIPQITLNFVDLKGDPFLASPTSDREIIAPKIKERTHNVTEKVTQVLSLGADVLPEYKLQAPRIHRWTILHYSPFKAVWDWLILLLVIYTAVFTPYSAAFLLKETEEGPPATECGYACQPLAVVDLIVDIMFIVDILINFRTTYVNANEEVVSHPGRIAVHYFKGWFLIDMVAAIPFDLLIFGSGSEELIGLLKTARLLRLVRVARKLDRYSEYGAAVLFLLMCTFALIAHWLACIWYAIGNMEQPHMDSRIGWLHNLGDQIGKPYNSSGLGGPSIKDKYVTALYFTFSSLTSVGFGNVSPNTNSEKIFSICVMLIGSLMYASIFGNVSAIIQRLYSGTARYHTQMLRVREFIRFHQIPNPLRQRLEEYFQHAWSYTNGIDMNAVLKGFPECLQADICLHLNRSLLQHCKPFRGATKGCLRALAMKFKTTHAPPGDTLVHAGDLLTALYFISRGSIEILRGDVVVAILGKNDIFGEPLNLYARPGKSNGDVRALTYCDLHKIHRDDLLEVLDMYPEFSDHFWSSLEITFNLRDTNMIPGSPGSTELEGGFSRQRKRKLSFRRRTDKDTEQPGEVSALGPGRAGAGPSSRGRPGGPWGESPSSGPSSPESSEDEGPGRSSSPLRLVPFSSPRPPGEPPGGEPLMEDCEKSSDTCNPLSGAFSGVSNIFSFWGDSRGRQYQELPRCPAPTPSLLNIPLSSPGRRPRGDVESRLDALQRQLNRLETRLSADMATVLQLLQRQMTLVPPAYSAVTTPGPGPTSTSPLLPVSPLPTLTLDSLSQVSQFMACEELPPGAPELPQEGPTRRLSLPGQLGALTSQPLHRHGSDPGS
row,SMILES,"hERG current change (%, negative = inhibition) at 1uM"
1,Cc1ccc(-c2ccc(C(=O)O)c(C)n2)cc1,7.26%
2,Cc1ccc(C)c(CN2C(=O)COc3ccccc32)c1,13.7%
3,Cc1ccc(C2OCC3(CO)COC(c4ccc(C)cc4)N23)cc1 (stereo not drawn),9.27%
4,CCOC(=O)c1[nH]c(=O)[nH]c1CSc1ccccn1,-2.24%
5,Cc1ccccc1NC1=NC(=S)N(CC(N)=O)C12CCOC(C)(C)C2 (stereo not drawn),0.596%
6,COC(=O)c1nn(-c2ccc(OC)cc2)c(=O)cc1O,16.2%
7,Cc1ccccc1COC(=O)CCCC1=NS(=O)(=O)c2ccccc2N1,8.86%
8,CCOc1ccccc1N(CC(=O)NCc1ccccc1)C(=O)CCC(=O)Nc1cc(C)ccn1,6.21%
9,Cc1cc(Cl)ccc1OCCCC(=O)Nc1ccc(S(=O)(=O)Nc2ncccn2)cc1,6.3%
10,N#Cc1c(-c2ccccc2)nc(SCC(=O)Nc2ccc(OC(F)(F)Cl)cc2)[nH]c1=O,19.7%
11,O=C(CNC(=O)OCc1ccccc1)Nc1ccc(Br)cc1C(=O)c1ccccc1Cl,3.8%
12,Cn1c(SCC(=O)c2ccccc2)nc2cccnc21,14.3%
13,CC1CC(C)CN(S(=O)(=O)N2CCCC(C(=O)NC(C)c3ccccc3)C2)C1 (stereo not drawn),10.1%
14,CC(=O)c1ccc(NS(=O)(=O)c2cccc(C(=O)Nc3ccccc3C(=O)O)c2)cc1,11.4%
15,Cc1ccc(-n2nc(C)c3c(C)c(CCC(=O)NCc4ccco4)c(C)nc32)cc1,5.19%
16,CC(=O)N/C(=C\c1ccccc1)C(=O)OCC(=O)N1CCCCCC1,7.65%
17,COc1ccc(C(=O)Oc2cc(/C=N/NS(=O)(=O)c3ccc(C)cc3)ccc2OC)cc1,12.2%
18,CC(C)C(NC(=O)c1ccc(F)cc1)C(=O)N1CCOCC1 (stereo not drawn),12.3%
19,COc1ccc(NC(=S)N(CCO)Cc2ccccc2)cc1,6.21%
20,CCCNC(=O)c1ccccc1NC(=O)Cc1ccc(OC)c(S(=O)(=O)N2CCOCC2)c1,-3.17%
21,CCOC(=O)C1C(=O)OC(C)(C)C1C(CC)C(=O)c1ccccc1 (stereo not drawn),6.46%
22,COc1cc(/C=C2\SC(c3ccc(C)cc3)=NC2=O)ccc1O,-3.46%
23,CN(CCc1ccccc1)Cc1nc(-c2cnccn2)no1,21.3%
24,Br.N=c1n(CCN2CCCCC2)c2ccccc2n1CC(=O)c1cccc([N+](=O)[O-])c1,-36.6%
25,O=C(c1ccco1)N1CCCC(c2nc3c(nnn3Cc3ccc(F)cc3)c(=O)[nH]2)C1 (stereo not drawn),1.6%
26,Cc1cc2oc(C(=O)Nc3nonc3C)c(C)c2cc1C,7.76%
27,O=C(c1ccccc1Cl)N1CCCC(c2nc3c(nnn3Cc3ccccc3)c(=O)[nH]2)C1 (stereo not drawn),-8.97%

row,SMILES,"hERG current change (%, negative = inhibition) at 1uM"
1,CCOc1ccccc1C(=O)N(Cc1ccco1)C1CCS(=O)(=O)C1 (stereo not drawn),3.29%
2,CCN(CC)CCCNC(=O)CN1C(=O)CSc2ccc(S(=O)(=O)N3CCOCC3)cc21,-4.23%
3,COc1cccc(-c2nc(-c3ccc(Br)o3)no2)c1,13%
4,Cn1c(=O)c2c(SCC(=O)NCCc3ccccc3)nc(C3CC3)nc2n(C)c1=O,6.15%
5,COc1ccc(CN2CCN(S(=O)(=O)c3ccc(NC(C)=O)cc3)CC2)cc1.O=C(O)C(=O)O,5.18%
6,Cc1ccc(-c2ccccc2NC(=O)CCl)o1,3.98%
7,COc1ccc(N2CCN(C(=O)C34CCC(C)(C(=O)C3)C4(C)C)CC2)cc1 (stereo not drawn),0.667%
8,O=C(CCN1C(=O)[C@@H]2Cc3ccccc3CN2C1=O)Nc1cccc(F)c1,18%
9,CC1CCC(NC(=O)CCNS(=O)(=O)c2ccccc2)CC1 (stereo not drawn),8.01%
10,COCCNC(=O)CN(C(=O)Cn1nnc2ccccc21)c1ccc(C)c(F)c1,11%
11,COc1ccc(/C=N/NC(=O)c2cccnc2)cc1CN1CCOCC1,11.4%
12,CCOC(=O)C1CCN(C(=O)CCn2c(=O)[nH]c3ccsc3c2=O)CC1,5.9%
13,COc1ccc(-c2csc(N(Cc3ccco3)C(=O)c3cccs3)n2)cc1,2.71%
14,CC(C)N1CCN(Cc2ccc3nsnc3c2)CC1CCO (stereo not drawn),12.1%
15,CCOC(=O)C1=C(C)Nc2ccc(C)cc2S1,12%
16,CNc1nnc(C(F)(F)F)s1,14.9%
17,C/C(=N\NC(=O)Cn1cc([N+](=O)[O-])cn1)c1ccc(O)cc1,-1.75%
18,O=C(Nc1ccccc1Oc1ccccc1)C1CCCC1,18.4%
19,O=C(NCc1ccc2c(c1)OCO2)C1CCN(C(=O)Nc2ccc(Cl)cc2)CC1,-5.19%
20,C#CCOCCOCCOCCNc1nc(N2CCN(C(=O)[C@H]([C@@H](C)CC)n3cc([C@@H](N)Cc4ccc(O)cc4)nn3)CC2)nc(N2CCN(C(=O)[C@H](Cc3cc4ccccc4[nH]3)n3cc([C@@H](N)C(C)CC)nn3)CC2)n1.Cl (stereo partly drawn),8.93%
21,Cc1ccc2c(c1)N(CC(=O)NCCCN1CCCCC1C)C(=O)c1cccnc1O2 (stereo not drawn),13.2%
22,CCOC(=O)CNC(=O)Cn1cnc2sc(C)c(S(=O)(=O)N3CCOCC3)c2c1=O,15.2%
23,COc1cccc(/C=N/NC(=O)c2c(C)nc3ccc(Cl)cn23)c1OC,19.7%
24,N#Cc1ccc(-c2cn(-c3ccccc3)c3[n+]2CCCS3)cc1.[Br-],13.9%
25,COc1ccc(-n2c(C)cc(/C=N/Nc3nc(N4CCOCC4)nc(N4CCOCC4)n3)c2C)cc1,4.59%
26,CCCCN(C1CCS(=O)(=O)C1)S(=O)(=O)c1cccs1 (stereo not drawn),5.63%
27,CS(=O)(=O)N(Cc1ccccc1)c1ccccn1,16.3%
